In the antibiotic and cytotoxicity screens of Wong et al. (2023):
The other results are listed elsewhere or left out.

How the values were obtained:
HSkMC = human skeletal muscle cells; assay: cytotoxicity call (relative viability < 0.9); conditions: 10 µM
HepG2 = assay: cytotoxicity call (relative viability < 0.9); conditions: 10 µM
S. aureus RN4220 = assay: growth inhibition call (relative growth <= 0.2); conditions: 50 µM

CN1C(=O)c2cc(NC(=O)Cc3cccs3)ccc2OC[C@H]2O[C@@H](CC(=O)NCCc3ccncc3)CC[C@H]21
inactive: cytotoxicity call (HSkMC) | cytotoxicity call (HepG2) | growth inhibition call (S. aureus RN4220)

COc1ccc2cc(C(C)C(=O)O)ccc2c1 (centres undefined)
inactive: cytotoxicity call (HSkMC) | cytotoxicity call (HepG2) | growth inhibition call (S. aureus RN4220)

Cc1noc(C)c1NC(=O)Nc1ccc2c(c1)C(=O)N([C@@H](C)CO)C[C@H](C)[C@@H](CN(C)C(=O)Cc1ccccc1)OCCCC[C@H](C)O2
inactive: cytotoxicity call (HSkMC) | cytotoxicity call (HepG2) | growth inhibition call (S. aureus RN4220)

CS(=O)(=O)Nc1ccccc1O
inactive: cytotoxicity call (HSkMC) | cytotoxicity call (HepG2) | growth inhibition call (S. aureus RN4220)

CC(C)NC(=O)N(C)C[C@@H]1Oc2ccc(NC(=O)Cn3cnnn3)cc2CC(=O)N([C@@H](C)CO)C[C@@H]1C
inactive: cytotoxicity call (HSkMC) | cytotoxicity call (HepG2) | growth inhibition call (S. aureus RN4220)

C[C@H](CO)N1C[C@H](C)[C@@H](CN(C)C(=O)Nc2ccc3c(c2)OCO3)Oc2ccc(NC(=O)Nc3cccc4ccccc34)cc2CC1=O
inactive: cytotoxicity call (HSkMC) | cytotoxicity call (HepG2) | growth inhibition call (S. aureus RN4220)

C[C@@H]1CN([C@@H](C)CO)C(=O)c2cccc(NS(=O)(=O)c3cn(C)cn3)c2O[C@@H]1CN(C)C(=O)NC1CCCCC1
inactive: cytotoxicity call (HSkMC) | cytotoxicity call (HepG2) | growth inhibition call (S. aureus RN4220)

CC(C)NC(=O)N(C)C[C@@H]1Oc2ccc(NC(=O)CCN3CCOCC3)cc2CC(=O)N([C@@H](C)CO)C[C@H]1C
inactive: cytotoxicity call (HSkMC) | cytotoxicity call (HepG2) | growth inhibition call (S. aureus RN4220)
